Reference: the RNAGym collection of RNA variant scans (doi:10.7554/elife.90254)
The source gives no read counts; variants with many changes may rest on few reads.

B1: OR4K15 (parent)
chain: GUUAACGGUCAUAGGCCAUGGAAACUAGGAGCACCAUUUCGCUGCCAGUGAAGAAAUGAACAAAGAAAAUCUGGGCCAGGCAGGCAUCAAAAGAAAUAGUCUUGCGCUCAACCAGAAAGUCUGUAAUCAUUUUAAGGGUA

Variants of: B1
Experiment: self-cleavage, relative activity (ratio to wild type); higher = more cleavage; in vitro, sequencing; the parent is a self-cleaving ribozyme

Row | Variant | self-cleavage
1 | U87C A95G U120C U122C | 0.13
2 | A27G U43C A91G U102A C105U A117U | 0.08
3 | A23G U72C U120C A135U | 0.13
4 | A55G A94G A114U | 0.02
5 | G29C A52G U57C A66U A94G | 0.94
6 | U9C U19A A52G A78G A110G A116G | 0.02
7 | A5G A82G A92G U139C | 0.73
8 | A55G A59U A90G | 0.75
9 | A89U A92G A129U | 1.57
10 | A18G A27G A110G U122C | 0.23
11 | A23G A64G A89U U97C | 1.6
12 | U72A A92U A110U | 0.24
13 | A27G A64U A68G U87A | 0.79
14 | A52G A59G A63G G123C | 0.4
15 | U19A A36U A117G | 2.3
16 | G41A A86G U122G A134C G136A | 2.62
17 | A52G U120A A135G | 0.66
18 | U49A A118G U130A | 0.28
19 | U9C A64G A95G | 2.01
20 | C76G U100C A111U A126U | 0.02
21 | G1A U19C U72C A89G A90G | 0.28
22 | A52G A60G A118U A135G | 0.43
23 | A18U A95G A118U | 1.14
24 | A30G A51G U108A U122C | 0.02

Row | Variant | self-cleavage
25 | G44A A51G A126G | 1.65
26 | A5U U39C U133C | 1.86
27 | U37C U100A A111G A129G | 0.01
28 | A56G G99A U102C U127C | 1.24
29 | A52G A60G A82G U97G | 0.64
30 | A36U U57G U132C | 1.67
31 | U9C A47G U122C | 0.6
32 | A33G U38A A95G C105U | 0.83
33 | U2G A54G U100C U102A A117G | 1.75
34 | A23G G83A U130C U132C | 2
35 | U19C A89G U100C | 1.61
36 | U9A U49C A86G | 1.07
37 | A18G A23C U43A U120C U130C | 1.1
38 | A64G A91G A135U | 1.57
39 | A4G A54G U132C | 1.16
40 | A11G A23G A86G A91G U102C | 0.81
41 | A22G A67G A86U A94G | 1.97
42 | U3A U103C U120C | 0.14
43 | A30U A69G U70C U103G U122G A126G | 0.02
44 | A33G A82G A129U | 0.13
45 | A67G A114C U133C | 0.05
46 | U9A U39C A63G A129G U131C | 1.16
47 | U3C A54G A66G | 1.16
48 | U2C U9C A22G | 1.36

Row | Variant | self-cleavage
49 | A22G U39C A52G U87C | 1.16
50 | A82G G83A U97C | 0.67
51 | A30G A64G A86G | 1.82
52 | A22G A129G U139A | 0.99
53 | A18G A63G U108A | 0.04
54 | A22G U39C A55G U72C A82G G84A | 0.27
55 | A62G A68C U122C | 2.03
56 | A59G A92G U127C | 0.98
57 | A23U U43C U70C A95C | 0.6
58 | U2C U37C A68G A78G | 0.2
59 | A90G U131A U132C | 1.38
60 | A22C A23G A27G A91G U102A | 1.07
61 | A59G U122C A135G | 1.14
62 | U37C A66G A91G U139C | 1.86
63 | A23G A55U A91G A125G | 0.21
64 | U38C U72C A90G A94G U102C U124A | 0.15
65 | U12C A22G A24G G29A A51G A59G A110U | 1.09
66 | G50A A68G U122A | 0.46
67 | A47G A54G A117G | 1.75
68 | A51G A96G U131C | 1.05
69 | A47U A90G A117G A135U | 0.74
70 | U19A U43A G79A A114G | 0.11
71 | G83U A90G A95G U133C A140U | 1.26
72 | U2A U9C A22G U87C U100G U131C | 1.34

Row | Variant | self-cleavage
73 | A68G A78G A135G | 0.25
74 | A59G A90G A116G | 0.46
75 | A27G A30G U43C A96G U97C | 0
76 | U2A A94G A117G | 1.42
77 | U2C U87C A90G | 0.24
78 | A5G C34U A86G | 0.83
79 | A23G A67C U87C | 0.9
80 | A24G A52U U87C | 0.5
81 | A51G A111G U130C A135G | 0.03
82 | A52U A63G A64G U122A | 1.02
83 | U3A U12C A36G A98U | 1.22
84 | A5G A23G U43A | 0.82
85 | A55G A62C U97C | 1.16
86 | G14A U26G A82G A91G U120A | 0.1
87 | A24G U87C U133C | 1.3
88 | A51G A78G A92U | 0.5
89 | U2C A59G A86G A129G | 1.06
90 | U26C A55G A90G A135G | 0.6
91 | A13G A60G A91G | 0.52
92 | U43A A47G U100A U120A | 0.93
93 | C16A A91G A98U | 1.25
94 | A51G A126G A140G | 1.14
95 | A24G C40U A68G | 1.35
96 | A18U A36G U49C A63G A135G | 1.66

Row | Variant | self-cleavage
97 | A24G U87C A96G C105U | 0.07
98 | G29A U49C A56U A68G A125G | 0.32
99 | A5G A52G U108C | 0.13
100 | U2C A62G A111G | 0.02
101 | U3C A63G A66G A78U U103C | 0.2
102 | U26C U43A A55G | 2.28
103 | A5G U9C A68G A82U U103C A111G | 0.07
104 | A22G A51U A117G | 1.52
105 | U2C A22G A68G | 0.74
106 | C6U A52G U103C | 0.76
107 | A82U A89U A91U A94G A95G U100A | 0.26
108 | A18G A36G A54G U57G A68U A89G | 0.5
109 | A5G A24G A59U U108A | 0.04
110 | A66G U127C U130G | 0.57
111 | U43C U87C C121U | 1.98
112 | G7A A18G A78G U108C A114G | 0
113 | A22G A69G U131A | 1
114 | A33C A89G A90G | 1.25
115 | C6U A33G U124A | 0.82
116 | A11G G14A A23G | 1.11
117 | A23G U130C U132C | 0.97
118 | U43C U70C U131C | 0.32
119 | A36G A96C U103G | 0
120 | G1A U9A A30G | 1.42

Row | Variant | self-cleavage
121 | U2C A66G A98G | 0.29
122 | A54G A55G A89G C113A U120C | 0.02
123 | A63G A78C U103C | 0.12
124 | A67G U97A A126G | 1.58
125 | U38C G41A A64G U122C | 1.48
126 | A23U A59G U103C A118G U124C | 0.13
127 | A60G A66G A78U A95U | 0.21
128 | A4U A68G U124C | 1.26
129 | A78U U100C U130C | 0.77
130 | U26C A47C C105U U108C A110G A118G | 0.01
131 | C46U A52G A116G | 1.28
132 | A55G A78G U100C A125G U130C | 0.05
133 | A24G A30G A91U | 1.68
134 | A33G U57A U130A | 0.62
135 | U2C U57C U100C | 1.61
136 | U2A A82U A126C | 0.1
137 | U87C U102A U122C | 0.08
138 | A24G A68G A92U A96G | 1.78
139 | U2A G28A A114G | 0.41
140 | U2C U19G A36U U49C A68G A118G | 0.76
141 | U2C U43C A59G A64G U70C U131C | 0.25
142 | U2C A51G A64U A69G A89U | 0.68
143 | A64G A110C U120C | 0.28
144 | U12C A55G A67G | 1.04

Row | Variant | self-cleavage
145 | U3C U9C U19C G44C A82G U100C | 0.88
146 | C34U A116G U122A | 0.73
147 | U19G A59G A66G | 0.56
148 | U72C C81U A86U | 0.16
149 | U37C A117U U127A | 1.29
150 | U49C U70C A92G A111G A114U | 0.01
151 | A69G A111G U127C | 0.02
152 | A52G A54G G58U A64C A96G | 0
153 | A13U A23G U133C A140U | 0.25
154 | U97C A117G U139A | 2.06
155 | A56G A60G G84U | 0.33
156 | A24U U39C A78U | 0.78
157 | U19C A54G A91G A117U | 0.63
158 | A30G G48A U97A U100C | 2.12
159 | A55G A91G U131C | 1.48
160 | A5G A30G A56G A69G A91G A110G U132C | 0.09
161 | C10U A11C A30G A67G U103C U139C | 1.24
162 | A47G A51G A54G | 2.03
163 | U57C G106A U120C | 0
164 | A13C A82G A89U A114U A117G G137A | 0.1
165 | U9C A89U A118G | 2.11
166 | A51G A59G G65U U100C U122A U133C | 1.03
167 | U37C A89C U131G | 0.32
